# Results from PubChem BioAssay AID651568 (National Center for Advancing Translational Sciences (NCATS), 2012).
# Screen size: about 1,200 compounds; about 55 (5%) were called active. Inconclusive results (about 15%) are left out. The call rests on the fitted dose curve; in most records, active means well fitted inhibition curve with a large enough effect; inconclusive means small, poorly fitted or top-dose-only effect; inactive means no such curve, though single readings can be large or run the other way. The list shows a part of the results.
# Experiment: qHTS Assay to Find Inhibitors of Chronic Active B-Cell Receptor Signaling: Hit Validation in Renilla Reporter Assay; further: nearly all actives have a fitted effect of over 70% in size
# Settings: TMD8 IkB-Renilla luciferase reporter, NF-kB signaling; series mostly up to 57.5 µM; activity change, negative = inhibition: at the top concentration
# Outline: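 Dual-Glo luminescence read-out of constitutively expressed IkB-Photinus/Renilla luciferase reporters in ABC-DLBCL lines, used to retest primary hits; reporter enzymes differ from the click beetle luciferases used in the primary screen.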
# On the % scale 0 is the no-effect control and ±100 the full control effect; potency means the concentration at half of the fitted maximal effect.
Structure (SMILES),"activity change, negative = inhibition",Potency
CCOc1ccc(S(=O)(=O)N2c3ccccc3CC2C)cc1 (stereo not drawn),inactive: 1.08%,–
COc1ccc(/C(C)=N/Nc2ccc(C(=O)O)cc2)cc1OC,inactive: 7.67%,–
CCc1ccc(S(=O)(=O)Nc2ccc(-c3ccc4nnc(C)n4n3)cc2)s1,inactive: 37.8%,–
CC1=NN(C(N)=S)C(=O)C1N=Nc1cccc(C)c1 (stereo not drawn),inactive: -13.2%,–
COc1ccc(C2=NOC(C(=O)NCc3ccc(F)cc3)C2)cc1 (stereo not drawn),inactive: -6.43%,–
CCOc1cc(/C=N/O)ccc1OCc1ccccc1F,inactive: 1.23%,–
COc1ccc(/C=C/C(=O)c2cc(F)ccc2OC(=O)c2ccccc2C)cc1OC,–,active: 13.5 µM
CCOC(=O)N1CCN(S(=O)(=O)c2ccc(C(=O)Nc3ccc(F)cc3F)cc2)CC1,inactive: -5.11%,–
COc1ccc(-c2cnnn2-c2ccc(N)cc2)cc1OC,inactive: 1.69%,–
COc1cc(OC)c(OC)cc1/C=C/C(=O)c1ccc(NS(=O)(=O)c2ccc(C)cc2)cc1,inactive: -16.9%,–
O=C(Oc1ccc(Cl)c2cccnc12)C12CC3CC(CC(C3)C1)C2,inactive: -1.45%,–
COc1ccc(C=O)cc1OS(=O)(=O)c1ccc(NC(C)=O)cc1,inactive: 3.37%,–
CCCSc1nc(=O)n2cccc(C)c2n1,inactive: -10.4%,–
N#CC1=C2SCC(O)(c3ccccc3)N2C(=O)CC1c1ccccc1 (stereo not drawn),inactive: -28.9%,–
COc1ccc(NC(=O)C2CCCN2S(=O)(=O)c2cccc3cccnc23)cc1OC (stereo not drawn),inactive: 2.24%,–
CCOC(=O)C(C)/C(C)=N/NC(N)=S (stereo not drawn),inactive: -2.05%,–
CCN(C(=O)COC(=O)c1cc([N+](=O)[O-])ccc1N1CCOCC1)c1ccccc1,inactive: -5.41%,–
CNC(=O)[C@H]1O[C@@H](n2cnc3c(NCc4cccc(I)c4)ncnc32)[C@H](O)[C@@H]1O,inactive: -6.32%,–
C[C@]12CC[C@H]3C(=CCc4cc(O)ccc43)[C@@H]1CCC2=O,inactive: -24.3%,–
CCOCCOC(=O)c1[nH]c2c(c1C)C(=O)CC(c1ccccc1)C2 (stereo not drawn),inactive: 0.538%,–
COc1ccc(OC)c(Nc2c3c(nc4ccccc24)CCC3)c1,inactive: -24.8%,–
COC(=O)c1cn(C(=O)c2ccc(OC)cc2)c2ccccc12,inactive: -0.417%,–
CCn1c(SCC(=O)c2ccc(Cl)cc2)nnc1C(C)C,inactive: -4.83%,–
COc1ccc(S(=O)(=O)Nc2ccc3c(c2)n(C)c(=O)n3C)cc1F,inactive: 18.8%,–
Cc1ccc(C(=O)c2cc([N+](=O)[O-])ccc2N2CCCCC2)c(C)c1,inactive: -15.6%,–
O=C(Cc1ccc(-n2c(=O)c3ccccc3n(Cc3ccccc3Cl)c2=O)cc1)NCC1CCCO1 (stereo not drawn),inactive: -0.0877%,–
O=C(COc1ccc(Oc2ccccc2)cc1)NCc1cn2ccccc2n1,inactive: 6.84%,–

Structure (SMILES),"activity change, negative = inhibition",Potency
COc1ccc(/C(C)=N/Nc2ncc(Cl)cc2Cl)c(O)c1,inactive: -0.249%,–
Cc1ccc(S(=O)(=O)N2CCN(C(=O)CSc3n[nH]c(N)n3)CC2)c(C)c1,inactive: -2.9%,–
CCC(C)N(C(=O)COC(=O)c1cc([N+](=O)[O-])ccc1N1CCOCC1)C1CCS(=O)(=O)C1 (stereo not drawn),inactive: 2.51%,–
Cc1ccc(NS(=O)(=O)c2ccc(-c3cnc(C4CC4)o3)cc2)c(C)c1,inactive: 5.35%,–
Cc1noc(C)c1COc1ccc(CC(=O)NCc2ccccc2)cc1,inactive: -14%,–
Cc1ccc(C#N)c(SCc2ccccc2[N+](=O)[O-])n1,inactive: 2.11%,–
CC(NC(=O)c1ccc(S(=O)(=O)NCc2ccco2)cc1)c1ccc(F)cc1 (stereo not drawn),inactive: 23.2%,–
Cn1c(=O)n(Cc2ccccc2Cl)c2ccccc21,inactive: 7.35%,–
COc1ccccc1NC(=O)Cn1nnc(C(=O)NCc2cccs2)c1N,inactive: 5.14%,–
COC(=O)C1=CN(Cc2ccc(OC)c(OC)c2)C=C(C(=O)OC)C1c1cccc(O)c1,inactive: 2.18%,–
NC(=O)c1c(NC(=O)CSc2nc(N)cc(=O)[nH]2)sc2c1CCCC2,inactive: -13.8%,–
CC(=O)[C@H]1CC[C@H]2[C@@H]3C[C@H](C)C4=CC(=O)CC[C@]4(C)[C@H]3[C@@H](O)C[C@]12C,inactive: -2.35%,–
CCC(=O)Nc1nonc1-c1nc2ccccc2n1Cc1cccc2ccccc12,inactive: -1.91%,–
COc1ccc(-c2noc(CSc3nc(N)c(-c4ccccc4)c(=O)[nH]3)n2)cc1OC,inactive: -12.8%,–
Cc1ccc(Oc2ccc(-c3nc(N)nc(N)n3)cc2)cc1C,inactive: -28.8%,–
CCCC(=O)OCCNc1cc(Sc2nccn2C)c2nonc2c1[N+](=O)[O-],–,active: 3.79 µM
C=CCn1c(SCC(=O)Nc2cccc(S(N)(=O)=O)c2)nc2sc(C)c(C)c2c1=O,inactive: 5.08%,–
Cc1cccc(NS(=O)(=O)c2ccc(C3CCCCC3)cc2)n1,–,active: 13.5 µM
CCOc1cc(C(=O)N(C)CC(=O)Nc2cccc3ccccc23)ccc1OC,inactive: -0.768%,–
CNC(=S)N/N=C(\C)c1ccc2c(c1)OCCO2,inactive: -1.41%,–
COc1cc(C2C(C#N)=C(N)Oc3cc(N)ccc32)cc(OC)c1OC (stereo not drawn),inactive: -28.5%,–
Cc1cc(=O)oc2cc(OCC3CC(c4ccccc4Cl)=NO3)ccc12 (stereo not drawn),inactive: -6.64%,–
CNC(=S)N/N=C/c1ccco1,inactive: 3.29%,–
CNC(=S)N/N=C(\C)c1ccc(Cl)c(Cl)c1,inactive: 7.41%,–
COc1cccc(-c2nnc(SCC(=O)Nc3cc(C)on3)o2)c1,inactive: 4.37%,–
COc1ccc(/C=C/C(=O)Nc2cc(S(=O)(=O)N3CCOCC3)ccc2OC)cc1,inactive: -11%,–
